# Reference: PubChem BioAssay AID463173 (ICCB-Longwood Screening Facility, Harvard Medical School, 2010)
# Out of some 52,000 compounds screened, about 1,700 (3.3%) were called active. No stated cut-off is given here; in the data, active means survival mostly below about 52% (no sharp cut-off); inactive means mostly above about 56%. This is one part of the list.
# System: Wild type
# Experiment: growth inhibition of S. aureus wild type versus tarO mutant, primary screen, teichoic acid synthesis inhibitors, RN4220, OD600 (AID 463173)
# Settings: S. aureus RN4220 wild type/DeltatarO growth, OD600, 18 h, stronger effect = lower value, screened at 18.75 µg/mL (by protocol)
row,Structure (SMILES),survival
1,CCCn1c(COc2cccc(C)c2)nc2ccccc21,active: 25%
2,O=c1oc2cc(O)ccc2cc1-c1nc(-c2ccc(Cl)c(Cl)c2)cs1,inactive: 95%
3,COC(=O)C1=C(C)NC(=O)NC1c1cn(-c2ccccc2)nc1-c1ccc(OC)c(Br)c1 (stereo not drawn),inactive: 74%
4,O=C(COCc1cc(-c2cccs2)on1)N1CCN(c2ccc(F)cc2)CC1,inactive: 73%
5,O=c1c(=O)n(-c2ccccc2)ccn1Cc1c(F)cccc1Cl,inactive: 77%
6,CCOc1cccc(NC(=O)c2sc3nc(-c4ccc(F)cc4)ccc3c2N)c1,inactive: 103%
7,CCSc1ncc(Cl)c(C(=O)N(Cc2ccccc2)c2ccc(OC)cc2)n1,inactive: 110%
8,COc1cc(CNCCSc2nnnn2C)ccc1OCc1ccc(C)cc1,inactive: 69%
9,Cc1cc(C)cc(N2CC(c3nnc(NC(=O)c4ccco4)s3)CC2=O)c1 (stereo not drawn),inactive: 75%
10,C#CCn1c(O)c(N=NC(=O)c2cc(OC)c(OC)c(OC)c2)c2ccccc21,inactive: 114%
11,COc1cc(C(=O)Nc2ccc(-n3c(C)nc4ccccc4c3=O)cc2)cc(OC)c1OC,inactive: 65%
12,O=C(c1ccccc1)N1CCCC(c2nc3c(nnn3Cc3ccc(F)cc3F)c(=O)[nH]2)C1 (stereo not drawn),inactive: 104%
13,Cc1nc2cccnc2n1C1CCN(C(=O)Nc2ccccc2)CC1,inactive: 85%
14,CCCCn1c(=NC(=O)c2c(-c3c(F)cccc3Cl)noc2C)c(C(=O)OCC)cc2c(=O)n3ccccc3nc21,inactive: 136%
15,Cc1ccc(-c2noc(-c3ccc(NCc4cccnc4)c([N+](=O)[O-])c3)n2)cc1,inactive: 110%
16,O=c1c2oc3ccccc3c2n(Cc2ccc(F)cc2)c(=O)n1Cc1ccco1,inactive: 87%
17,O=C(NCc1cccc(F)c1)c1ccc(CN2CC(=O)N3CCCCC3C2=O)cc1 (stereo not drawn),inactive: 120%
18,CCOC(=O)C1CCN(C(c2ccc(OCC)cc2)c2c(O)cc(C)n(CCOC)c2=O)CC1 (stereo not drawn),inactive: 93%
19,COc1ccc(CNS(=O)(=O)c2cc(Br)cc3c2N(C(C)=O)C(C)C3)cc1 (stereo not drawn),inactive: 138%
20,CCCCc1ccc(-n2nc3cc(Cl)c(NC(=O)c4ccc(OC)cc4)cc3n2)cc1,inactive: 66%
21,CCOC(=O)c1ccc2nc(C)cc(Nc3ccc(OC(C)C)cc3)c2c1,inactive: 134%
22,Cc1ccc(-n2cnc3cc(C(=O)NCc4ccc(F)cc4)ccc32)c(C)c1,inactive: 73%

row,Structure (SMILES),survival
1,Cc1ccc(OC(C)C(=O)N2CCN(CCc3ccncc3)CC2)cc1C (stereo not drawn),inactive: 88%
2,Clc1ccc2oc(-c3ccccc3)nc2c1,inactive: 116%
3,CCOC(=O)c1cccc(NS(=O)(=O)c2ccc3[nH]c4c(c3c2)CCCC4)c1,inactive: 87%
4,CC(Sc1nc2c(c(=O)[nH]1)CCCC2)C(=O)Nc1cc(C(F)(F)F)ccc1Cl (stereo not drawn),inactive: 66%
5,Cc1cccc(C(=O)NCCc2nc3ccccc3n2Cc2ccc(Cl)cc2)c1,inactive: 64%
6,Cc1cc(NC(=O)CCC(=O)N(c2ccc(F)cc2)C2(C(=O)NC3CCCCC3)CCCC2)no1,inactive: 100%
7,CCC(CC)C(=O)Nc1ccccc1SCc1cc(=O)c2cccc(C)c2[nH]1,inactive: 72%
8,COc1ccc2c3c(cccc13)OCC2=O,inactive: 109%
9,CNC(=S)N(CCO)Cc1cc2cc3c(cc2[nH]c1=O)OCCO3,inactive: 110%
10,CC(C)OC(=O)CSc1nnc(-c2ccc(O)cc2)n1-c1ccccc1,inactive: 116%
11,COCCCNC(=O)C1CCC(Cn2c(=O)c3sccc3n(C)c2=O)CC1 (stereo not drawn),inactive: 132%
12,Cc1ccc(NC(=O)c2ccc(Cl)cc2Cl)c(C(=O)c2ccccc2)c1,active: 1%
13,O=S(=O)(NCc1ccc(Cl)cc1)c1ccc2[nH]c3c(c2c1)CCCC3,inactive: 119%
14,CCOc1ccc(-c2cc3c(=O)n(Cc4nc(-c5ccccc5OCC)oc4C)ccn3n2)cc1Cl,inactive: 146%
15,Cc1ccc(Cn2c(C)c(CNCC(C)c3ccccc3)c(C(=O)O)c2C)cc1 (stereo not drawn),inactive: 105%
16,CS(=O)(=O)c1ccc(-c2nn[nH]n2)cc1,inactive: 103%
17,Cc1ccc(NC(=O)CN2CCN(c3ccccc3F)CC2)cc1F,inactive: 73%
18,COc1ccccc1C(=O)NCC(C)(C)CN=C1NS(=O)(=O)c2ccccc21,inactive: 110%
19,CCOC(=O)C1CCN(c2nc3c(S(=O)(=O)c4ccccc4)nnn3c3ccc(Cl)cc23)CC1,inactive: 136%
20,CCCCc1c(C)nc2c(-c3ccc(Cl)cc3)c(C)[nH]n2c1=O,active: -13%
21,CC(C)C(=O)N1CCN(c2ccc(NC(=O)c3ccccc3)cc2)CC1,inactive: 95%
22,COc1cc(OC)cc(C(=O)Nc2ccc(-c3nc4cc(C(C)C)ccc4o3)cc2)c1,inactive: 62%

row,Structure (SMILES),survival
1,Cc1ccc(C)c(N2CCN(S(=O)(=O)c3ccc(-c4coc(C)n4)cc3)CC2)c1,inactive: 68%
2,COc1ccc(C(=O)c2sc3nc(-c4ccc(C)cc4)cc(C(F)(F)F)c3c2N)cc1,inactive: 122%
3,CCCCN(CCCNC(=O)c1cc(Nc2ccc(OC)cc2)nc2ccccc12)Cc1ccccc1,inactive: 81%
4,CCOC(=O)CNc1nc(Cl)nc(Nc2ccccc2)n1,inactive: 121%
5,COc1ccc(-n2cc(-c3ccc4c(c3)OCO4)n(CC(=O)Nc3cccc(C)c3C)c2=O)c(OC)c1,inactive: 80%
6,CCOC(=O)C(CC)n1nc(C)c2c(C)n(-c3ccc(C)cc3)nc2c1=O (stereo not drawn),inactive: 119%
7,O=S(=O)(Nc1ccc(F)c(Cl)c1)c1ccc(Br)s1,inactive: 40%
8,Cc1ccc(S(=O)(=O)c2nc(S(=O)(=O)c3ccc(C)cc3)c(NCCCOC(C)C)s2)cc1,inactive: 93%
9,CCOC(=O)c1ccc(N2C(=O)c3n[nH]c(-c4cccs4)c3C2c2ccc(CC)cc2)cc1 (stereo not drawn),inactive: 91%
10,O=c1c(S(=O)(=O)c2ccccc2)cn(Cc2ccc(F)cc2)c2cc(N3CCOCC3)c(F)cc12,inactive: 102%
11,Cc1cccc(N2CCN(C(=O)Cn3ncc4c5ccccc5n(C)c4c3=O)CC2C)c1 (stereo not drawn),inactive: 82%
12,Cc1ccccc1-n1nc(CO)c(C(=O)NCC(c2ccccc2)c2ccccc2)n1,inactive: 84%
13,COc1ccc(CCNC(=O)CCCn2c(=O)c3ccccc3n(Cc3ccccc3C#N)c2=O)cc1OC,inactive: 81%
14,CC(=O)C1=C(c2ccc(Cl)c(Cl)c2)N(C(C)=O)n2c(nnc2-c2ccccc2)S1,inactive: 83%
15,O=C(COCc1cc(-c2ccc(F)cc2)on1)Nc1cc(Cl)ccc1O,inactive: 89%
16,Nc1nonc1C(=O)NCCNCc1ccccc1F,inactive: 72%
17,COc1cccc2cc(-c3nc(Nc4cccc(C)c4C)sc3C)c(=O)oc12,inactive: 65%
18,COc1cccc(C2C=C(c3ccccc3)Nc3c(C(=O)Nc4ccccc4)cnn32)c1OC (stereo not drawn),inactive: 64%
19,COc1cc(C(CC(=O)Nc2cccc(C(C)=O)c2)N2Cc3ccccc3C2=O)cc(OC)c1OC (stereo not drawn),inactive: 93%
20,CC(=O)Nc1nonc1-c1nnc(SCC(=O)Nc2cc(Cl)ccc2C)n1C,inactive: 121%
21,CCOC(=O)c1c(NC(=O)/C=C/c2ccc(C)cc2)sc(C(C)=O)c1C,inactive: 74%
22,CCOC(=O)c1cc(S(=O)(=O)NCc2cccc(Cl)c2)[nH]n1,inactive: 85%

row,Structure (SMILES),survival
1,Cn1c(=O)c2c(nc(NCCc3ccccc3)n2Cc2ccc(Cl)cc2)n(C)c1=O,inactive: 74%
2,Cc1cccc(C(=O)Nc2sc3c(c2C(=O)NC(C)C)CCCC3)c1,inactive: 69%
3,CCOC(=O)c1cnc2cc(F)c(F)cc2c1Nc1ccccc1O,inactive: 169%
4,CC(C)(C)OC(=O)N1CCC(c2c(C(=O)N3CCCCC3)cnn2-c2cccc(F)c2)CC1,inactive: 134%
5,Cc1ccc(C)c(NC(=O)CSc2nnc(-c3cc4occc4n3C)n2-c2ccccc2C)c1,inactive: 71%
6,Cc1ccc(CNC(=O)CSc2ncc3c(n2)-c2ccc(Cl)cc2N(Cc2ccccc2)S3(=O)=O)cc1,inactive: 91%
7,Cc1ccc(NS(=O)(=O)c2cc3[nH]c(=O)c(=O)[nH]c3cc2C)cc1N(C)C,inactive: 81%
8,CCc1ccccc1NC(=O)[C@@H](c1ccccc1)N1Cc2ccccc2C1=O,inactive: 22%
9,Cc1ccc(NC(=O)CCCn2c(=O)c3cccn3c3cccnc32)cc1C,inactive: 89%
10,CC(=O)c1ccc(N2CCN(C(=O)CCc3nnc4n(C)c(=O)c5sccc5n34)CC2)cc1,inactive: 64%
11,COc1cc(OC)c(NC(=O)c2noc3c2CSc2ccccc2-3)cc1Cl,inactive: 91%
12,CCCCn1c(SCC(=O)Nc2ccc(OCC)cc2)nc2ccsc2c1=O,inactive: 134%
13,CC1(C)CC(=O)c2c(oc3c(Cl)cc(NS(=O)(=O)c4ccc(Br)cc4)cc23)C1,inactive: 76%
14,CC(=O)N1CCc2c(sc3c2c(=O)n(-c2cc(Cl)ccc2C)c(=O)n3Cc2ccccc2F)C1,inactive: 123%
15,CC(C)CC(=O)Nc1ccccc1OCc1cc(=O)n2ccccc2n1,inactive: 67%
16,N#C/C(=C/c1ccc(-c2ccc(Cl)c(C(=O)O)c2)o1)C(=O)NC1CCCC1,inactive: 111%
17,COC(=O)c1cc(Cl)ccc1NC(=O)CSc1ncc(S(=O)(=O)c2ccc(Br)cc2)c(=O)[nH]1,inactive: 59%
18,O=C(Nc1ccc(Br)cc1F)N1CCC(CN2CCc3ccccc3C2)CC1,inactive: 63%
19,Cc1ccc(C)n1/N=C1\NC(=O)CS1,inactive: 109%
20,COc1ccc(C(=O)COC(=O)CCCC(=O)Nc2cc(C(F)(F)F)ccc2Cl)cc1,inactive: 70%
21,CCCCOC(=O)c1ccc(NC(=O)c2cc(-c3cccs3)on2)cc1,inactive: 97%
22,Cc1ccc(Nc2c(-c3ccc(C)s3)nc3ncccn23)cc1,inactive: 43%
